# Target: the molecule itself
# Assay: SEC-coupled SAXS; 80 μl at 5 mg/ml (220 µM monomer) on Shodex KW404-F in 50 mM phosphate pH 7.5, 100 mM NaCl, 2.5 mM DTT; number of subunits from the mass at the elution peak (I0 against water)
row,Protein,stoichiometry N [subunits]
1,"human HSPB1 R127W mutant (natural protein, HSPB1 (HSP27), human, with the autosomal dominant Charcot-Marie-Tooth mutation R127W; Disease mutation found in patients; Probably the whole protein; SUMO carrier probably removed (subtractive IMAC); source: recombinant (pET23b or pETHSUK construct), expressed as described earlier) not shown",38
2,"human HSPB1 R136W mutant (natural protein, HSPB1 (HSP27), human, with the autosomal dominant Charcot-Marie-Tooth mutation R136W; Disease mutation found in patients; Probably the whole protein; SUMO carrier probably removed (subtractive IMAC); source: recombinant (pET23b or pETHSUK construct), expressed as described earlier; purified (ammonium sulfate fractionation, anion-exchange, SEC; or subtractive IMAC, anion-exchange, SEC)) not shown",41
3,"human HSPB1 S135F mutant (natural protein, HSPB1 (HSP27), human, with the autosomal dominant Charcot-Marie-Tooth mutation S135F; Disease mutation found in patients; Probably the whole protein; SUMO carrier probably removed (subtractive IMAC); The abstract once prints R135F for this mutant; source: recombinant (pET23b or pETHSUK construct), expressed as described earlier; purified (ammonium sulfate fractionation, anion-exchange, SEC; or …)) not shown",40

# Target: the molecule itself
# Assay: SEC; Superdex 200 HR in buffer S; HSPB1 variants loaded at 0.7–1.0 mg/ml after phosphorylation by MAPKAPK-2 to 0.9–1.0 mole phosphate per mole of protein or above
row,Protein,stoichiometry N
1,"human HSPB1 R127W mutant, phosphorylated by MAPKAPK-2 (natural protein, phosphoserine at the MAPKAPK-2 sites S15, S78 and S82, to 0.9–1.0 mole phosphate per mole of protein or above, HSPB1 (HSP27), human, with the disease mutation R127W; also called phosphorylated R127W) not shown",2
2,"human HSPB1 S135F mutant, phosphorylated by MAPKAPK-2 (natural protein, phosphoserine at the MAPKAPK-2 sites S15, S78 and S82, to 0.9–1.0 mole phosphate per mole of protein or above, HSPB1 (HSP27), human, with the disease mutation S135F; also called phosphorylated S135F) not shown",2
3,"human HSPB1 R136W mutant, phosphorylated by MAPKAPK-2 (natural protein, phosphoserine at the MAPKAPK-2 sites S15, S78 and S82, to 0.9–1.0 mole phosphate per mole of protein or above, HSPB1 (HSP27), human, with the disease mutation R136W; also called phosphorylated R136W) not shown",2

# Source: paper PMC5766566, “Characterization of human small heat shock protein HSPB1 α-crystallin domain localized mutants associated with hereditary motor neuron diseases” (Scientific Reports, 2018)
